In the supplement of paper PMC9135407:
Where “and” joins values, the source holds several entries; their conditions need not be identical. Identical values can stand only once. Counter-ions that a name gives are not always drawn. In all, about 5,800 compounds went through this assay and about 620 (11%) showed activity.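 How the source made its calls: active = score above a cut-off or among the top three wells of a plate; in these data no inactive exceeds 0.85.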 This is a selection; strong and weak results do not stand in their true shares.

Test system: primary human hepatic stellate cells (donor 1)
Test: scaled lipid accumulation score (0 = DMSO-like, 1 = nortriptyline-like); higher = stronger HSC inactivation (lipid re-accumulation), active = hit call of the paper
Conditions: 48 h
[1] = library stock concentration: 10 mM
[2] = library stock concentration: 1 mM
[3] = library stock concentration: 3.33 mM
[4] = library stock concentration: 80 uM
[5] = library stock concentration: 400 uM
[6] = library stock concentration: 2 mM

COc1ccc2cc(C(C)C(=O)O)ccc2c1 (stereo not drawn) [Naproxen(+)]
scaled lipid accumulation score (library stock concentration: 8.7 mM): inactive: 0.014 | scaled lipid accumulation score [1]: inactive: ≤ 0

Nc1ncnc2c1nc(Sc1ccc(Cl)cc1)n2C1OC2COP(=O)(O)O[C@@H]2[C@@H]1O (stereo not given in full) [8-(4-Chlorophenylthio)-cAMP sodium]
scaled lipid accumulation score [1]: inactive: ≤ 0

COc1cc2nccc(Oc3ccc(NC(=O)Nc4ccc(F)cc4F)c(F)c3)c2cc1OC
scaled lipid accumulation score [1]: active: 1.22

CC(C)c1ccc(C(=O)c2cccs2)c(SCCCCCCCCN(C)C)n1.O=C(O)C(=O)O
scaled lipid accumulation score [1]: active: 1.24

CC(C)=CCC/C(C)=C/CC/C(C)=C/CSCC(=O)O [S-Farnesyl Thioacetic Acid]
scaled lipid accumulation score [2]: inactive: 0.018

CC(C)=CCC/C(C)=C/CC/C(C)=C/CSCC(=O)O [Farnesylthioacetic acid]
scaled lipid accumulation score [2]: inactive: ≤ -0.021

O=C(O)C1=CCCNC1 [Guvacine hydrochloride]
scaled lipid accumulation score [1]: inactive: 0.31 and inactive: ≤ 0

Cc1cc(CC(=O)O)n(C)c1C(=O)c1ccc(Cl)cc1 [Zomepirac sodium salt]
scaled lipid accumulation score: inactive: ≤ 0

Cc1cc(CC(=O)O)n(C)c1C(=O)c1ccc(Cl)cc1 [Zomepirac sodium]
scaled lipid accumulation score (library stock concentration: 6.9 mM): inactive: ≤ 0 | scaled lipid accumulation score [1]: inactive: ≤ 0

CCCCCCCCCCCCCCCC(=O)O[C@@H]1[C@@H](O)[C@@H](O)[C@@H]([C@H](NC(=O)[C@@H]2C[C@@H](CCC)CN2C)[C@H](C)Cl)O[C@@H]1SC [Clindamycin palmitate]
scaled lipid accumulation score (library stock concentration: 4.7 mM): inactive: ≤ -0.002

CCCCCCCCCCCCCCCC(=O)O[C@@H]1[C@@H](O)[C@@H](O)[C@@H]([C@H](NC(=O)[C@@H]2C[C@@H](CCC)CN2C)[C@H](C)Cl)O[C@@H]1SC [Clindamycin palmitate hydrochloride]
scaled lipid accumulation score (library stock concentration: 2.9 mM): inactive: ≤ 0

CCCCCCCCCCCCCCCC(=O)O[C@@H]1[C@@H](O)[C@@H](O)[C@@H]([C@H](NC(=O)[C@@H]2C[C@@H](CCC)CN2C)[C@H](C)Cl)O[C@@H]1SC [Clindamycin palmitate HCl]
scaled lipid accumulation score [3]: inactive: ≤ 0 | scaled lipid accumulation score [1]: inactive: ≤ 0

COc1cc(/C=C(\C#N)C(N)=O)cc(CSc2nc3ccccc3s2)c1O
scaled lipid accumulation score [1]: inactive: ≤ 0

CCOCC(O)COc1ccc(NC(=O)CC[S+](C)C)cc1 (stereo not given) [Suplatast Tosylate]
scaled lipid accumulation score [3]: inactive: ≤ 0 | scaled lipid accumulation score [1]: inactive: ≤ 0

CCOCC(O)COc1ccc(NC(=O)CC[S+](C)C)cc1 (stereo not given) [Suplatast tosylate]
scaled lipid accumulation score [1]: inactive: ≤ -0.001

CN1CCN(CCOc2cc(OC3CCOCC3)c3c(Nc4c(Cl)ccc5c4OCO5)ncnc3c2)CC1 [Saracatinib (AZD0530)]
scaled lipid accumulation score [3]: inactive: 0.783 | scaled lipid accumulation score [1]: inactive: 0.661

CN1CCN(CCOc2cc(OC3CCOCC3)c3c(Nc4c(Cl)ccc5c4OCO5)ncnc3c2)CC1
scaled lipid accumulation score [4]: inactive: 0.151 | scaled lipid accumulation score [5]: inactive: 0.172 | scaled lipid accumulation score [6]: inactive: 0.419 | scaled lipid accumulation score [1]: inactive: 0.706

O=C(NCC(O)CO)c1c(I)c(C(=O)NCC(O)CO)c(I)c(N(CCO)C(=O)CO)c1I (stereo not given) [Ioversol]
scaled lipid accumulation score: inactive: ≤ 0

CO/N=C(\C(=O)N[C@@H]1C(=O)N2C(C(=O)O)=C(COC(N)=O)CS[C@H]12)c1ccco1 [Cefuroxime]
scaled lipid accumulation score [1]: inactive: ≤ 0

CO/N=C(\C(=O)N[C@@H]1C(=O)N2C(C(=O)O)=C(COC(N)=O)CS[C@H]12)c1ccco1 [Cefuroxime sodium]
scaled lipid accumulation score (library stock concentration: 4.5 mM): inactive: ≤ 0 | scaled lipid accumulation score [1]: inactive: ≤ 0

CO/N=C(\C(=O)N[C@@H]1C(=O)N2C(C(=O)O)=C(COC(N)=O)CS[C@H]12)c1ccco1 [Cefuroxime sodium salt]
scaled lipid accumulation score: inactive: ≤ 0

C[C@@H](N)c1ccc(C(=O)Nc2ccnc3[nH]ccc23)cc1
scaled lipid accumulation score [4]: inactive: ≤ -0.009 | scaled lipid accumulation score [5]: inactive: ≤ -0.009 | scaled lipid accumulation score [6]: inactive: 0.069

Nc1ccc(S(=O)(=O)Nc2ccnn2-c2ccccc2)cc1 [Sulfaphenazole]
scaled lipid accumulation score: inactive: 0.045 | scaled lipid accumulation score [1]: inactive: ≤ 0

FC(F)(Cl)C(F)(F)Cl
scaled lipid accumulation score [1]: inactive: ≤ 0

C=CC(=O)Nc1ccc2ncnc(Nc3cccc(Br)c3)c2c1
scaled lipid accumulation score [3]: inactive: 0.014 | scaled lipid accumulation score [1]: inactive: 0.802

CCC(=O)c1c(O)cc(O)cc1O [Flopropione]
scaled lipid accumulation score [3]: inactive: ≤ 0 | scaled lipid accumulation score [1]: inactive: ≤ -0.001 and inactive: ≤ 0

COc1ccc(C2CC(c3c(O)cc(C)oc3=O)=NCCS2)c(OC)c1 (stereo not given)
scaled lipid accumulation score [1]: inactive: 0.164

CC1Cc2ccccc2N1NC(=O)c1ccc(Cl)c(S(N)(=O)=O)c1 (stereo not given)
scaled lipid accumulation score [1]: inactive: ≤ 0

CC1Cc2ccccc2N1NC(=O)c1ccc(Cl)c(S(N)(=O)=O)c1 (stereo not given) [Indapamide]
scaled lipid accumulation score: inactive: ≤ 0 | scaled lipid accumulation score [3]: inactive: ≤ 0 | scaled lipid accumulation score [1]: inactive: 0.054 and inactive: ≤ 0

CCCS(=O)(=O)Nc1ccc(F)c(C(=O)c2c[nH]c3ncc(Cl)cc23)c1F
scaled lipid accumulation score [1]: active: 1.16

Nc1nc2[nH]c(=O)cnc2c(=O)[nH]1 [Isoxanthopterin]
scaled lipid accumulation score [1]: inactive: ≤ -0.055

C[C@H]1O[C@@H](O[C@H]2[C@@H](O)C[C@H](O[C@H]3[C@@H](O)C[C@H](O[C@H]4CC[C@]5(C)C6C[C@@H](O)[C@]7(C)[C@@H](C8=CC(=O)OC8)CC[C@]7(O)C6CC[C@@H]5C4)O[C@@H]3C)O[C@@H]2C)C[C@H](O)[C@@H]1O (stereo not given in full) [Digoxin]
scaled lipid accumulation score (library stock concentration: 2.6 mM): active: 0.937

CC(C)(C)[C@]1(O)CCN2C[C@H]3c4ccccc4CCc4cccc(c43)[C@@H]2C1 [(+)-Butaclamol hydrochloride]
scaled lipid accumulation score [1]: inactive: 0.672

CC(C)(C)[C@]1(O)CCN2C[C@H]3c4ccccc4CCc4cccc(c43)[C@@H]2C1
scaled lipid accumulation score [1]: inactive: 0.691

N[C@H](C(=O)O)c1cc(O)cc(O)c1
scaled lipid accumulation score [1]: inactive: ≤ 0

N[C@H](C(=O)O)c1cc(O)cc(O)c1 [(S)-3,5-Dihydroxyphenylglycine]
scaled lipid accumulation score [1]: inactive: ≤ -0.07

c1ccc(C(NCc2cccnc2)(c2ccccc2)c2ccccc2)cc1
scaled lipid accumulation score [1]: inactive: ≤ -0.07 and inactive: ≤ -0.001

CC(=O)OC1CC2CCC1(C)C2(C)C (stereo not given)
scaled lipid accumulation score [1]: inactive: ≤ 0

O=S(=O)(NCCNC/C=C/c1ccc(Br)cc1)c1cccc2cnccc12
scaled lipid accumulation score [1]: active: 0.989
